In PubChem BioAssay AID743279 (National Center for Advancing Translational Sciences (NCATS), 2014):
Screen size: about 360,000 compounds; about 17,000 (4.7%) were called active. This list was built around the results that the source calls inconclusive (neither active nor inactive); the mix of calls is not that of the screen. Rule as the data show it: active = activity change below about -50%; inconclusive = mostly about -30% to -49%; inactive = weaker than that.

Test: qHTS for Inhibitors of Inflammasome Signaling: IL-1-beta AlphaLISA Primary Screen
Details: THP-1 LPS/ATP IL-1B secretion, 16 h; at 57.5 µM, hits give low values
Procedure, shortened: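 THP-1 cells pretreated 1 hr with compounds (up to 57.5 uM final), then stimulated with LPS (250 ng/mL final) plus ATP (1.25 mM final); secreted IL-1B measured by AlphaLISA after 16 hr, decreased signal indicating inhibition.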
% is scaled to controls: 0 for no effect and ±100 for the full control effect.

| Structure (SMILES) | activity change |
| --- | --- |
| Nc1nsc2ccccc12 | active: -99.2% |
| Cc1ccccc1CN1CCC(CNC(=O)Nc2ccc(F)cc2F)CC1 | inconclusive: -45.7% |
| Oc1ccccc1-c1cc(-c2ccccc2Cl)[nH]n1 | inconclusive: -45.6% |
| N#CC1(Nc2ccc([N+](=O)[O-])cc2)CCCC1 | inactive: -9.8% |
| c1ccn2cc(C34CC5CC(CC(C5)C3)C4)nc2c1 | inactive: 6.2% |
| Cc1ccc(CN2C(=O)C(CC(C)C)Nc3ncnc(N4CCN(c5ccccn5)CC4)c32)cc1 (stereo not given) | active: -55.5% |
| CCCOc1ccc(/C=N/NC(=O)c2nnn(-c3nonc3N)c2-c2cccs2)cc1OC | inconclusive: -37.5% |
| CC1=C(C(=O)Nc2ccc(C)cc2C)C(c2cccc(Cl)c2)n2nc(C(=O)OC(C)C)nc2N1 (stereo not given) | inconclusive: -30.9% |
| CN(C)S(=O)(=O)Oc1ccc(C(=O)Nc2cccc(Cl)c2)cc1 | inconclusive: -34.3% |
| COc1ccccc1NC(=O)Nc1nc(C(N)Cc2ccccc2)cs1 (stereo not given) | inconclusive: -41.2% |
| COc1ccc(C(=O)c2[nH]c(N)c(C(=O)NCCc3c[nH]c4ccccc34)c2-c2ccc(Cl)cc2)cc1 | inconclusive: -35.7% |
| Fc1ccc(N2CCN(C(=S)NCc3ccco3)CC2)cc1 | inconclusive: -42% |
| COC(=O)c1c(NC(=O)c2ccccc2N(C)S(=O)(=O)c2ccccc2)sc2c1CCCC2 | inactive: 19.9% |
| CN(C)c1ccc(C=c2c3ccccc3n3c2cc(-c2ccc(Cl)cc2)[n+]3C)cc1 | active: -119% |
| Cc1ccc2nc(-c3cccc(NC(=O)c4ccco4)c3)[nH]c2c1 | inactive: 0.778% |
| O=C1CCCC(=O)N1c1ccc(O)cc1 | inactive: 2.21% |
| Oc1ccc(Br)cc1-c1ccn[nH]1 | inactive: -2.85% |
| CC1C(=O)Nc2ccccc2N1C(=O)c1c(F)cccc1F (stereo not given) | inactive: -9.24% |
| CC(C(=O)NC1CCCC1)N(C(=O)Cn1nnc(-c2ccc(F)cc2)n1)c1ccccc1F (stereo not given) | active: -65.8% |
| Cc1cc(=O)oc2cc(OCC(=O)NC3CC(C)(C)NC(C)(C)C3)c(Cl)cc12 | inconclusive: -49.9% |
| CN(CC(=O)NCC(=O)Nc1ccc(F)c(F)c1F)C1CCS(=O)(=O)C1 (stereo not given) | inactive: 6.07% |
| O=C(CCl)NCCNC(=O)c1cc(OCC(F)(F)F)ccc1OCC(F)(F)F | active: -60.2% |
| CCOC(=O)C1=CC[C@@H](c2cccc(C)c2)N(S(=O)(=O)c2ccc(C)cc2)[C@H]1C(=O)OCC | inactive: 0% |
| COc1ccc2sc(-c3ccc(N(C)C)cc3)c(C#Cc3cncn3C)c2c1 | inactive: -5.62% |
| Cn1cccc1C(=O)OCC(=O)NCc1cccs1 | inactive: 7.6% |
